*1 amine or outer side, *2 acyl side, *3 side chain or, on linkers, in order; H or OH if unused. Where a SMILES comes first, the peptide text is derived from it. [ ]: non-standard residue; d: D form. The star is where a group is joined. ξ: configuration not given here. Doxorubicin(3'-N) = COc1cccc2c1C(=O)c1c(O)c3c(c(O)c1C2=O)C[C@@](O)(C(=O)CO)C[C@@H]3O[C@H]1C[C@H](N*)[C@H](O)[C@H](C)O1; Dovitinib(4-NH) = CN1CCN(c2ccc3nc(-c4c(N*)c5c(F)cccc5[nH]c4=O)[nH]c3c2)CC1; X6 = C[C@@]12C=CC(=O)C=C1CC[C@H]1C2C(=O)C[C@]2(C)C1CC[C@@]2(O)C(=O)CO*; Hexanoyl(6-maleimido) = O=C1C=CC(=O)N1CCCCCC(=O)*; Butanoyl(4-maleimido) = O=C1C=CC(=O)N1CCCC(=O)*; Propanoyl(3-maleimido) = O=C1C=CC(=O)N1CCC(=O)*; X1 = O=C1C=CC(=O)N1CCOCCOCCOCCC(=O)*; PABC = O=C(OCc1ccc(N[*:1])cc1)[*:2]; PEG2 = NCCOCCOCCC(=O)O; ξL = CC(C)CC(N)C(=O)O
Experiment: Water solubility test (observation and HPLC)
Assay type: physicochemical
Settings: thermodynamic from solid; lyophilized compound dissolved in water; checked by observation and HPLC (>95%)
Method: The compounds prepared in accordance with the examples of the disclosure and the reference compounds C1, C2, C3 and C4 were lyophilized (−70° C.).

Row | Structure (SMILES) | solubility [µg/mL]
1 | COc1cccc2c1C(=O)c1c(O)c3c(c(O)c1C2=O)C[C@@](O)(C(=O)CO)C[C@@H]3O[C@H]1C[C@H](NC(=O)[C@H](CC(C)C)NC(=O)[C@H](CC(N)=O)NC(=O)[C@H](C)NC(=O)[C@H](C)NC(=O)[C@H](CCCNC(=N)N)NC(=O)CCCCCN2C(=O)C=CC2=O)[C@H](O)[C@H](C)O1 [QHL-136-DOX] ({Hexanoyl(6-maleimido)}-RAANL-{Doxorubicin(3'-N)}) | > 2000
2 | COc1cccc2c1C(=O)c1c(O)c3c(c(O)c1C2=O)C[C@@](O)(C(=O)CO)C[C@@H]3O[C@H]1C[C@H](NC(=O)[C@H](CC(C)C)NC(=O)[C@H](CC(N)=O)NC(=O)[C@H](C)NC(=O)[C@H](C)N)[C@H](O)[C@H](C)O1 [AANL-DOX, reference compound] (H-AANL-{Doxorubicin(3'-N)}) | < 1000
3 | CC(NC(=O)CN1C(=O)C=CC1=O)C(=O)NC(C)C(=O)NC(CC(N)=O)C(=O)Nc1ccc(COC(=O)N2CC3(C2)C(=O)[O][Pt-2]([NH3+])([NH3+])[O]C3=O)cc1 (centres unmarked) [QHL-146-N-CBP] | > 20000
4 | C[C@H](NC(=O)[C@H](C)NC(=O)[C@H](CC(=O)O)NC(=O)CCCCCN1C(=O)C=CC1=O)C(=O)N[C@@H](CC(N)=O)C(=O)Nc1ccc(COC(=O)OCC(=O)[C@]2(O)CCC3[C@H]4CCC5=CC(=O)C=C[C@@]5(C)C4C(=O)C[C@]32C)cc1 (some centres unmarked) [QHL-119-prednisone] ({Hexanoyl(6-maleimido)}-DAAN[PABC]-X6) | > 10000
5 | COc1cccc2c1C(=O)c1c(O)c3c(c(O)c1C2=O)C[C@@](O)(C(=O)CO)C[C@@H]3O[C@H]1C[C@H](NC(=O)[C@H](CC(C)C)NC(=O)[C@H](CC(N)=O)NC(=O)[C@H](C)NC(=O)[C@H](C)NC(=O)[C@H](CC(=O)O)NC(=O)CCOCCOCCNC(=O)CCCN2C(=O)C=CC2=O)[C@H](O)[C@H](C)O1 [QHL-066-DOX] ({Butanoyl(4-maleimido)-PEG2}-DAANL-{Doxorubicin(3'-N)}) | > 15000
6 | COc1cccc2c1C(=O)c1c(O)c3c(c(O)c1C2=O)C[C@@](O)(C(=O)CO)C[C@@H]3O[C@H]1C[C@H](NC(=O)[C@H](CC(C)C)NC(=O)[C@H](CC(N)=O)NC(=O)[C@H](C)NC(=O)[C@H](C)NC(=O)[C@H](CCC(=O)O)NC(=O)CCOCCOCCOCCN2C(=O)C=CC2=O)[C@H](O)[C@H](C)O1 [QHL-022-DOX] (X1-EAANL-{Doxorubicin(3'-N)}) | > 20000
7 | CC(C)CC(NC(=O)[C@@H](CC(N)=O)NC(=O)[C@@H](C)NC(=O)[C@@H](C)NC(=O)CCOCCOCCNC(=O)CCN1C(=O)C=CC1=O)C(=O)Nc1c(-c2nc3ccc(N4CCN(C)CC4)cc3[nH]2)c(=O)[nH]c2cccc(F)c12 (some centres unmarked) [QHL-087 - Dovitinib] ({Propanoyl(3-maleimido)-PEG2}-[dA][dA][dN][ξL]-{Dovitinib(4-NH)}) | > 10000
8 | COc1cccc2c1C(=O)c1c(O)c3c(c(O)c1C2=O)C[C@@](O)(C(=O)CO)C[C@@H]3O[C@H]1C[C@H](NC(=O)[C@H](CC(C)C)NC(=O)[C@H](CC(N)=O)NC(=O)[C@H](C)NC(=O)[C@H](C)NC(=O)[C@H](CCCCN)NC(=O)CCCCCN2C(=O)C=CC2=O)[C@H](O)[C@H](C)O1 [QHL-135-DOX] ({Hexanoyl(6-maleimido)}-KAANL-{Doxorubicin(3'-N)}) | > 5000
9 | COc1cccc2c1C(=O)c1c(O)c3c(c(O)c1C2=O)C[C@@](O)(C(=O)CO)C[C@@H]3O[C@H]1C[C@H](NC(=O)[C@H](CC(C)C)NC(=O)[C@H](CC(N)=O)NC(=O)[C@H](C)NC(=O)[C@H](C)NC(=O)[C@H](Cc2c[nH]cn2)NC(=O)CCCCCN2C(=O)C=CC2=O)[C@H](O)[C@H](C)O1 [QHL-137-DOX] ({Hexanoyl(6-maleimido)}-HAANL-{Doxorubicin(3'-N)}) | > 5000
10 | COc1cccc2c1C(=O)c1c(O)c3c(c(O)c1C2=O)C[C@@](O)(C(=O)CO)C[C@@H]3O[C@H]1C[C@H](NC(=O)[C@H](CC(C)C)NC(=O)[C@H](CC(N)=O)NC(=O)[C@H](C)NC(=O)[C@H](C)NC(=O)[C@H](CC(=O)O)NC(=O)CCCCCN2C(=O)C=CC2=O)[C@H](O)[C@H](C)O1 [QHL-120-DOX] ({Hexanoyl(6-maleimido)}-DAANL-{Doxorubicin(3'-N)}) | > 10000
11 | COc1cccc2c1C(=O)c1c(O)c3c(c(O)c1C2=O)C[C@@](O)(C(=O)CO)C[C@@H]3O[C@H]1C[C@H](NC(=O)[C@H](CC(C)C)NC(=O)[C@H](CC(N)=O)NC(=O)[C@H](C)NC(=O)[C@H](C)NC(=O)[C@H](CO)NC(=O)CCCCCN2C(=O)C=CC2=O)[C@H](O)[C@H](C)O1 [QHL-129-DOX] ({Hexanoyl(6-maleimido)}-SAANL-{Doxorubicin(3'-N)}) | > 5000
